{"source": "a collection of fitness landscapes (doi:10.1016/j.celrep.2020.107928)", "parents": {"B1": {"name": "Caulobacter ParB omega fusion; a variant is named by its letters at X, in order, B8GW30 (parent)", "chain": "MESVVVGEPGMSEGRRGLGRGLSALLGEVDAAPAQAPGEQLGGSREAPIEILQRNPDQPRRTFREEDLEDLSNSIREKGVLQPILVRPSPDTAGEYQIVAGERAWRAAQRAGLKTVPIMVRELDDLAVLEIGIIENVQRADLNVLEEALSYKVLMEKFERTQENIAQTIGKSXSHVANXMRLLXLPDEVQSYLVSGELTAXHARAIAAAADPVALAKQIIEGGLSVRETEALARKAPNLSAGKSKGGRPPRVKDTDTQALESDLSSVLGLDVSIDHRGSTGTLTITYATLEQLDDLCNRLTRGI"}}, "note": "Whole data set: some 81,000 sequences, median “one-hybrid fitness for binding parS DNA” near -0.17, cut for the highest 2% near 0.51. The list shows a part of the results.", "data": [{"variants_of": "B1", "assay": "one-hybrid fitness for binding parS DNA (scaled: cognate 1, non-cognate 0); higher = stronger binding", "conditions": "with parS DNA site", "summary_of_the_method": "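Caulobacter ParB libraries with four specificity codons randomised were screened by bacterial one-hybrid selection in the E. coli USO strain, using a HIS3 reporter whose site lies 19 bp from the promoter. Selection ran for 48 hours at 37°C on M9 lacking histidine, with 0.1 mM IPTG and 5 mM 3-AT. Plasmids were Illumina-sequenced before and after selection, three replicate libraries were pooled, and variants with under 10 reads were dropped. Fitness is the log change in each variant's read ratio to wild type, rescaled against the cognate and non-cognate sites.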", "values": [{"variant": "SAFC", "one-hybrid fitness for binding parS DNA": "≤ 0.2"}, {"variant": "PVFC", "one-hybrid fitness for binding parS DNA": "≤ 0.2"}, {"variant": "PQLL", "one-hybrid fitness for binding parS DNA": "≤ 0.2"}, {"variant": "YHQE", "one-hybrid fitness for binding parS DNA": "≤ 0.2"}, {"variant": "TASP", "one-hybrid fitness for binding parS DNA": "≤ 0.2"}, {"variant": "QHMW", "one-hybrid fitness for binding parS DNA": "≤ 0.2"}, {"variant": "MSDF", "one-hybrid fitness for binding parS DNA": "≤ 0.2"}, {"variant": "ADPT", "one-hybrid fitness for binding parS DNA": "≤ 0.2"}, {"variant": "WFCS", "one-hybrid fitness for binding parS DNA": "≤ 0.2"}, {"variant": "QKTQ", "one-hybrid fitness for binding parS DNA": "≤ 0.2"}, {"variant": "HIPW", "one-hybrid fitness for binding parS DNA": "≤ 0.2"}, {"variant": "KKTD", "one-hybrid fitness for binding parS DNA": "≤ 0.2"}, {"variant": "HCCS", "one-hybrid fitness for binding parS DNA": "≤ 0.2"}, {"variant": "SVTQ", "one-hybrid fitness for binding parS DNA": "≤ 0.2"}, {"variant": "WGPG", "one-hybrid fitness for binding parS DNA": "≤ 0.2"}, {"variant": "WTAY", "one-hybrid fitness for binding parS DNA": "≤ 0.2"}, {"variant": "TTTL", "one-hybrid fitness for binding parS DNA": "≤ 0.2"}, {"variant": "QPTI", "one-hybrid fitness for binding parS DNA": "≤ 0.2"}, {"variant": "YNVP", "one-hybrid fitness for binding parS DNA": "≤ 0.2"}, {"variant": "SAPM", "one-hybrid fitness for binding parS DNA": "≤ 0.2"}, {"variant": "RRLR", "one-hybrid fitness for binding parS DNA": "≤ 0.2"}, {"variant": "DECI", "one-hybrid fitness for binding parS DNA": "≤ 0.2"}, {"variant": "WAYA", "one-hybrid fitness for binding parS DNA": "≤ 0.2"}, {"variant": "KTKP", "one-hybrid fitness for binding parS DNA": "≤ 0.2"}, {"variant": "PPEF", "one-hybrid fitness for binding parS DNA": "≤ 0.2"}, {"variant": "TSMC", "one-hybrid fitness for binding parS DNA": "≤ 0.2"}, {"variant": "ASFC", "one-hybrid fitness for binding parS DNA": "≤ 0.2"}, {"variant": "GQSC", "one-hybrid fitness for binding parS DNA": "≤ 0.2"}, {"variant": "CRYV", "one-hybrid fitness for binding parS DNA": "≤ 0.2"}, {"variant": "RCPT", "one-hybrid fitness for binding parS DNA": 0.604}, {"variant": "YWNG", "one-hybrid fitness for binding parS DNA": "≤ 0.2"}, {"variant": "SIPA", "one-hybrid fitness for binding parS DNA": "≤ 0.2"}, {"variant": "YAKD", "one-hybrid fitness for binding parS DNA": "≤ 0.2"}, {"variant": "WDPS", "one-hybrid fitness for binding parS DNA": "≤ 0.2"}, {"variant": "CVAV", "one-hybrid fitness for binding parS DNA": "≤ 0.2"}, {"variant": "NRML", "one-hybrid fitness for binding parS DNA": "≤ 0.2"}, {"variant": "FMPR", "one-hybrid fitness for binding parS DNA": "≤ 0.2"}, {"variant": "TVKR", "one-hybrid fitness for binding parS DNA": "≤ 0.2"}, {"variant": "HKHG", "one-hybrid fitness for binding parS DNA": "≤ 0.2"}, {"variant": "NVCL", "one-hybrid fitness for binding parS DNA": "≤ 0.2"}, {"variant": "WCAR", "one-hybrid fitness for binding parS DNA": "≤ 0.2"}, {"variant": "STGK", "one-hybrid fitness for binding parS DNA": "≤ 0.2"}, {"variant": "QVKN", "one-hybrid fitness for binding parS DNA": "≤ 0.2"}, {"variant": "LSWV", "one-hybrid fitness for binding parS DNA": "≤ 0.2"}, {"variant": "LPKR", "one-hybrid fitness for binding parS DNA": "≤ 0.2"}, {"variant": "GVFG", "one-hybrid fitness for binding parS DNA": "≤ 0.2"}, {"variant": "QALY", "one-hybrid fitness for binding parS DNA": "≤ 0.2"}, {"variant": "QMNE", "one-hybrid fitness for binding parS DNA": "≤ 0.2"}, {"variant": "KGFY", "one-hybrid fitness for binding parS DNA": "≤ 0.2"}, {"variant": "GYLV", "one-hybrid fitness for binding parS DNA": "≤ 0.2"}, {"variant": "STNC", "one-hybrid fitness for binding parS DNA": "≤ 0.2"}, {"variant": "TEKT", "one-hybrid fitness for binding parS DNA": "≤ 0.2"}, {"variant": "CMEW", "one-hybrid fitness for binding parS DNA": "≤ 0.2"}, {"variant": "VKTS", "one-hybrid fitness for binding parS DNA": "≤ 0.2"}, {"variant": "HTGF", "one-hybrid fitness for binding parS DNA": "≤ 0.2"}, {"variant": "VFMS", "one-hybrid fitness for binding parS DNA": "≤ 0.2"}, {"variant": "LYCC", "one-hybrid fitness for binding parS DNA": "≤ 0.2"}, {"variant": "NDDS", "one-hybrid fitness for binding parS DNA": "≤ 0.2"}, {"variant": "LDSW", "one-hybrid fitness for binding parS DNA": "≤ 0.2"}, {"variant": "RDRI", "one-hybrid fitness for binding parS DNA": "≤ 0.2"}, {"variant": "QKQW", "one-hybrid fitness for binding parS DNA": "≤ 0.2"}, {"variant": "ISHL", "one-hybrid fitness for binding parS DNA": "≤ 0.2"}, {"variant": "RVDS", "one-hybrid fitness for binding parS DNA": 0.974}, {"variant": "SFYR", "one-hybrid fitness for binding parS DNA": "≤ 0.2"}, {"variant": "AKWR", "one-hybrid fitness for binding parS DNA": "≤ 0.2"}, {"variant": "KRPH", "one-hybrid fitness for binding parS DNA": "≤ 0.2"}, {"variant": "EMND", "one-hybrid fitness for binding parS DNA": "≤ 0.2"}, {"variant": "RRCA", "one-hybrid fitness for binding parS DNA": 0.761}, {"variant": "SKLG", "one-hybrid fitness for binding parS DNA": "≤ 0.2"}, {"variant": "SDNL", "one-hybrid fitness for binding parS DNA": "≤ 0.2"}, {"variant": "PRHM", "one-hybrid fitness for binding parS DNA": "≤ 0.2"}, {"variant": "IIKC", "one-hybrid fitness for binding parS DNA": "≤ 0.2"}, {"variant": "LDHG", "one-hybrid fitness for binding parS DNA": "≤ 0.2"}, {"variant": "YYSY", "one-hybrid fitness for binding parS DNA": "≤ 0.2"}, {"variant": "TTFG", "one-hybrid fitness for binding parS DNA": "≤ 0.2"}, {"variant": "EEPR", "one-hybrid fitness for binding parS DNA": "≤ 0.2"}, {"variant": "AAWL", "one-hybrid fitness for binding parS DNA": "≤ 0.2"}, {"variant": "WMWG", "one-hybrid fitness for binding parS DNA": "≤ 0.2"}, {"variant": "CCRY", "one-hybrid fitness for binding parS DNA": "≤ 0.2"}, {"variant": "PACD", "one-hybrid fitness for binding parS DNA": "≤ 0.2"}, {"variant": "YAKF", "one-hybrid fitness for binding parS DNA": "≤ 0.2"}, {"variant": "RCSP", "one-hybrid fitness for binding parS DNA": "≤ 0.2"}, {"variant": "TEKR", "one-hybrid fitness for binding parS DNA": "≤ 0.2"}, {"variant": "DKGG", "one-hybrid fitness for binding parS DNA": "≤ 0.2"}, {"variant": "VPLV", "one-hybrid fitness for binding parS DNA": "≤ 0.2"}, {"variant": "GARE", "one-hybrid fitness for binding parS DNA": "≤ 0.2"}, {"variant": "NRTP", "one-hybrid fitness for binding parS DNA": "≤ 0.2"}, {"variant": "CFYS", "one-hybrid fitness for binding parS DNA": "≤ 0.2"}, {"variant": "SHEV", "one-hybrid fitness for binding parS DNA": "≤ 0.2"}, {"variant": "SVGS", "one-hybrid fitness for binding parS DNA": "≤ 0.2"}, {"variant": "THAM", "one-hybrid fitness for binding parS DNA": "≤ 0.2"}, {"variant": "QMHW", "one-hybrid fitness for binding parS DNA": "≤ 0.2"}, {"variant": "GPPL", "one-hybrid fitness for binding parS DNA": "≤ 0.2"}, {"variant": "ASLV", "one-hybrid fitness for binding parS DNA": "≤ 0.2"}, {"variant": "NQSG", "one-hybrid fitness for binding parS DNA": "≤ 0.2"}, {"variant": "RYPW", "one-hybrid fitness for binding parS DNA": "≤ 0.2"}, {"variant": "MECV", "one-hybrid fitness for binding parS DNA": "≤ 0.2"}, {"variant": "WLSD", "one-hybrid fitness for binding parS DNA": "≤ 0.2"}, {"variant": "DLGA", "one-hybrid fitness for binding parS DNA": "≤ 0.2"}, {"variant": "GTVK", "one-hybrid fitness for binding parS DNA": "≤ 0.2"}, {"variant": "QDLY", "one-hybrid fitness for binding parS DNA": "≤ 0.2"}, {"variant": "PHGP", "one-hybrid fitness for binding parS DNA": "≤ 0.2"}, {"variant": "QHIF", "one-hybrid fitness for binding parS DNA": "≤ 0.2"}, {"variant": "SWTT", "one-hybrid fitness for binding parS DNA": "≤ 0.2"}, {"variant": "WQKG", "one-hybrid fitness for binding parS DNA": "≤ 0.2"}, {"variant": "RFGI", "one-hybrid fitness for binding parS DNA": "≤ 0.2"}, {"variant": "HWPG", "one-hybrid fitness for binding parS DNA": "≤ 0.2"}, {"variant": "IIGG", "one-hybrid fitness for binding parS DNA": "≤ 0.2"}, {"variant": "NNMG", "one-hybrid fitness for binding parS DNA": "≤ 0.2"}, {"variant": "CFLY", "one-hybrid fitness for binding parS DNA": "≤ 0.2"}, {"variant": "ERRN", "one-hybrid fitness for binding parS DNA": "≤ 0.2"}, {"variant": "YHSG", "one-hybrid fitness for binding parS DNA": "≤ 0.2"}, {"variant": "FYFT", "one-hybrid fitness for binding parS DNA": "≤ 0.2"}, {"variant": "LKAG", "one-hybrid fitness for binding parS DNA": "≤ 0.2"}, {"variant": "DIIL", "one-hybrid fitness for binding parS DNA": "≤ 0.2"}, {"variant": "YQFT", "one-hybrid fitness for binding parS DNA": "≤ 0.2"}, {"variant": "GRGI", "one-hybrid fitness for binding parS DNA": "≤ 0.2"}, {"variant": "QTLE", "one-hybrid fitness for binding parS DNA": "≤ 0.2"}, {"variant": "NHHY", "one-hybrid fitness for binding parS DNA": "≤ 0.2"}, {"variant": "VSSL", "one-hybrid fitness for binding parS DNA": "≤ 0.2"}, {"variant": "YQNH", "one-hybrid fitness for binding parS DNA": "≤ 0.2"}, {"variant": "YYKW", "one-hybrid fitness for binding parS DNA": "≤ 0.2"}, {"variant": "IEPN", "one-hybrid fitness for binding parS DNA": "≤ 0.2"}, {"variant": "LMVR", "one-hybrid fitness for binding parS DNA": "≤ 0.2"}, {"variant": "DCYC", "one-hybrid fitness for binding parS DNA": "≤ 0.2"}, {"variant": "RPRL", "one-hybrid fitness for binding parS DNA": "≤ 0.2"}, {"variant": "HYAV", "one-hybrid fitness for binding parS DNA": "≤ 0.2"}, {"variant": "DMLS", "one-hybrid fitness for binding parS DNA": "≤ 0.2"}, {"variant": "HSSW", "one-hybrid fitness for binding parS DNA": "≤ 0.2"}, {"variant": "RQYI", "one-hybrid fitness for binding parS DNA": "≤ 0.2"}, {"variant": "NCEW", "one-hybrid fitness for binding parS DNA": "≤ 0.2"}, {"variant": "AQQK", "one-hybrid fitness for binding parS DNA": "≤ 0.2"}, {"variant": "PEQV", "one-hybrid fitness for binding parS DNA": "≤ 0.2"}, {"variant": "HEWG", "one-hybrid fitness for binding parS DNA": "≤ 0.2"}, {"variant": "TGDY", "one-hybrid fitness for binding parS DNA": "≤ 0.2"}, {"variant": "RFAE", "one-hybrid fitness for binding parS DNA": "≤ 0.2"}, {"variant": "YVST", "one-hybrid fitness for binding parS DNA": "≤ 0.2"}, {"variant": "PVYW", "one-hybrid fitness for binding parS DNA": "≤ 0.2"}, {"variant": "KQAV", "one-hybrid fitness for binding parS DNA": "≤ 0.2"}, {"variant": "TTKL", "one-hybrid fitness for binding parS DNA": "≤ 0.2"}, {"variant": "QSVI", "one-hybrid fitness for binding parS DNA": "≤ 0.2"}, {"variant": "LIPV", "one-hybrid fitness for binding parS DNA": "≤ 0.2"}, {"variant": "DNHP", "one-hybrid fitness for binding parS DNA": "≤ 0.2"}, {"variant": "TRGP", "one-hybrid fitness for binding parS DNA": "≤ 0.2"}, {"variant": "VRCK", "one-hybrid fitness for binding parS DNA": "≤ 0.2"}, {"variant": "RYER", "one-hybrid fitness for binding parS DNA": "≤ 0.2"}, {"variant": "SCDA", "one-hybrid fitness for binding parS DNA": "≤ 0.2"}, {"variant": "QMMR", "one-hybrid fitness for binding parS DNA": "≤ 0.2"}, {"variant": "LKPG", "one-hybrid fitness for binding parS DNA": "≤ 0.2"}, {"variant": "HELY", "one-hybrid fitness for binding parS DNA": "≤ 0.2"}, {"variant": "GPKM", "one-hybrid fitness for binding parS DNA": "≤ 0.2"}, {"variant": "AKSS", "one-hybrid fitness for binding parS DNA": "≤ 0.2"}, {"variant": "GETG", "one-hybrid fitness for binding parS DNA": "≤ 0.2"}]}]}
